# Results: PMC6919601, “Identification of Plasmodium dipeptidyl aminopeptidase allosteric inhibitors by high throughput screening” (PLoS ONE, 2019)
# Out of some 110,000 compounds screened, about 230 (0.21%) showed an effect of 50% or more. This is one part of the list.
# Target: DPAP1 (Plasmodium falciparum, UniProt Q8IIJ9)
# Assay: primary screen, percent inhibition; read by cleavage of a fluorogenic dipeptide substrate; higher = more effect of the substance
# Design: species or system P. falciparum D10 trophozoite lysates; single well
# 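Note: 30 min substrate incubation versus DMSO and 10 µM JCP410 controls.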
# Chain of DPAP1 (Q8IIJ9 whole entry, looked up): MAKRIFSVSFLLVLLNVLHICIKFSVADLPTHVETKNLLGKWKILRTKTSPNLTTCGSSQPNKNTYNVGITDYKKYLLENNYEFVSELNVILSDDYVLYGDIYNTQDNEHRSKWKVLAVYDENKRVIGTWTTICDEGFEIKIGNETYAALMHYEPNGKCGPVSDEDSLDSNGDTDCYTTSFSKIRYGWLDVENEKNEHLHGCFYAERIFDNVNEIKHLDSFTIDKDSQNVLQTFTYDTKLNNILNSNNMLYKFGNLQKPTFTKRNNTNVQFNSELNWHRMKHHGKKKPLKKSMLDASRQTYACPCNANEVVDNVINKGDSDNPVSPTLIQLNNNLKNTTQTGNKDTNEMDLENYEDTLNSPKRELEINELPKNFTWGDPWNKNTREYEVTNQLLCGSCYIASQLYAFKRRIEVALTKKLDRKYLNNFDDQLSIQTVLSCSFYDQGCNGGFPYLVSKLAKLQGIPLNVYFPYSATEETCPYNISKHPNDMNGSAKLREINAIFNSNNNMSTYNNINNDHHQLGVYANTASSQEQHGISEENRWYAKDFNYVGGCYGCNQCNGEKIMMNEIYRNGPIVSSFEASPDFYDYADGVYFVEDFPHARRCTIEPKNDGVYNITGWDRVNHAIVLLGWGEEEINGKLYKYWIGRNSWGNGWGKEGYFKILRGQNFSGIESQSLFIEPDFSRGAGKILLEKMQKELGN
row,Compound,% Inhibition @ 10 uM
1,CNC(=O)/C(C#N)=C/c1c(Oc2ccccc2OC)nc2ccccn2c1=O,3.63%
2,Cc1c(CNCc2ccc(F)cc2)c(C(=O)O)c(C)n1Cc1ccc(Cl)cc1,-7.36%
3,CN1CCN(c2ncnc3c2c(-c2ccccc2)cn3-c2ccc(Cl)cc2)CC1,6.14%
4,CCOCCOC(=O)C1=C(C)NC(=O)CC1c1ccccc1OCC (centres unmarked),0.484%
5,Cc1cc(C(F)(F)F)c(C#N)c(SCC(=O)Nc2nccs2)n1,-2.77%
6,CC(=O)c1cccc(NC(=O)c2ccc(N(C)S(=O)(=O)c3ccc(C)cc3)cc2)c1,5.24%
7,N=C1/C(=C/c2ccc(SCc3ccco3)o2)C(=O)N=C2SC=C(c3ccc(F)cc3)N12,28.7%
8,Cc1nc2ncnn2c(O)c1NC(=O)c1cccc(OCC(C)C)c1,1.49%
9,O=C1CC(N2CCOCC2)C(=O)N1c1ccc(F)cc1 (centres unmarked),-1.44%
10,COc1ccccc1/C=C/c1nc(-c2ccc(OCC(N)=O)cc2)no1,-8.55%
11,Cc1ccc(CS(=O)Cc2ccc(C(=O)NC(C)c3ccccc3)o2)cc1 (centres unmarked),-0.0309%
12,O=C(CCc1ccccc1)N1CCN(c2ccc(F)cc2)CC1,7.36%
13,O=C(CSCC(=O)N1c2ccccc2Sc2ccccc21)Nc1ccccc1,-6.02%
14,COc1cccc(OC)c1C(=O)Nc1ccccc1C,4.03%
15,Cn1ncc(C(=O)N2CCN(C(=O)c3ccco3)CC2)c1C1CCN(C(=O)OC(C)(C)C)CC1,0.0065%
16,CC1=C(C(=O)NCCCc2ccccc2)C2(CCCCC2)OC1=O,-0.138%
17,Cc1ccc(C(=O)C2=C(O)C(=O)N(c3ncccn3)C2c2ccc(Br)cc2)o1 (centres unmarked),-8.28%
18,CC(C)(C)NC(=O)/C=C/c1cccc([N+](=O)[O-])c1,-5.84%
19,CCOc1ccccc1OCc1nn2c(Cn3cnc4ccccc43)nnc2s1,20.1%
20,FC(F)(F)c1cccc(CN2CCN(c3ncccn3)CC2)c1,0.708%
21,COc1cc(/C=C2\SC(=O)N(CC(=O)N3CCOCC3)C2=O)ccc1OCc1ccccc1C#N,-0.312%
22,COc1ccc(C(=O)N2c3c(C)cccc3C(Nc3ccccc3C)CC2C)cc1 (centres unmarked),-2.54%
23,N#CCNC(=O)C1CCCCN1c1ccc(Br)cc1 (centres unmarked),-4.72%
24,CC(C)CC(C(=O)NCC#N)c1cccc(-c2cccc(S(=O)(=O)N3CCOCC3)c2)c1 (centres unmarked),-5.04%
25,CN(c1ccc(C(=O)Nc2ccc(S(=O)(=O)N3CCCCC3)cc2)cc1)S(C)(=O)=O,-4.39%

row,Compound,% Inhibition @ 10 uM
1,CC(=O)c1ccc(C(=O)Nc2ccc(OCC(N)=O)cc2)cc1,-6.08%
2,CCn1c2ccccc2c2cc(CN3CC4(C)CC3CC(C)(C)C4)ccc21 (centres unmarked),1.08%
3,Cc1ccc(-c2noc(CCC(=O)NCC3CCN(Cc4cccc(C)c4)CC3)n2)cc1,1.3%
4,N#CCNC(=O)[C@H](CC1CCCCC1)NC(=O)c1sccc1Cl,-5.21%
5,O=C(Cn1c(S(=O)(=O)Cc2ccccc2)nc2ccccc21)NC12CC3CC(CC(C3)C1)C2,1.72%
6,Cc1oc2cc3oc(=O)c(CCC(=O)NCc4ccccc4)c(C)c3cc2c1C,0.895%
7,CCN(CC)S(=O)(=O)c1ccc(NC(=O)COc2ccccc2Cl)cc1,-0.251%
8,C=CCN1C(=O)S/C(=C/c2ccccc2Cl)C1=O,-1.95%
9,O=C(CSc1ccccn1)Nc1c(C(=O)C2CC2)oc2ccccc12,0.778%
10,CC(=O)Nc1ccc(Nc2nc(-c3c(C)nc4ncccn34)cs2)cc1,-4.32%
11,COc1ccc(OC)c(/C=C2/SC(Nc3ccc(C)cc3)=NC2=O)c1,6.51%
12,COc1cc(-n2nc(SC)c(C#N)c2N)nc(-c2ccccc2)n1,1.82%
13,CC(C)CCn1c(Br)nc2c1c(=O)n(CC(N)=O)c(=O)n2C,-4.6%
14,COc1ccc2c(c1)nc(C)n2Cc1ccccc1,-1.37%
15,COc1cccc(NC(=O)c2ccc(C)c(C)c2)c1,5.28%
16,CCOC(=O)c1c(NC(=O)c2c(-c3ccccc3)noc2C)sc(C(=O)N(CC)CC)c1C,2.32%
17,Cc1ccc2nc3c(cc(C(=O)NCCc4ccccc4)c(=N)n3CCN3CCOCC3)c(=O)n2c1,5.17%
18,C=CCn1c(=N)c(C(=O)NC2CCCCC2)cc2c(=O)n3cc(C)ccc3nc21,1.76%
19,Cc1cccc(S(=O)(=O)N2CCSC2c2ccccc2)c1 (centres unmarked),-7.5%
20,Cc1nc2c(-c3ccc(F)cc3)c(C)nn2c(C)c1CCC(=O)N1CCN(Cc2ccccc2)CC1,2.93%
21,COc1ccccc1Cn1ccn(Cc2ccccc2F)c(=O)c1=O,1.23%
22,COc1cccc(N(CC(=O)N2CCN(c3cc(Cl)ccc3C)CC2)S(C)(=O)=O)c1,-7.27%
23,O=C(CN1CCCCC1)Nc1c(C(=O)c2ccc(F)cc2)oc2ccccc12,-3.9%
24,COc1ccc(CC(C(=O)O)C(C)C(=O)O)cc1 (centres unmarked),-6.06%
25,O=C(c1cccnc1)N(Cc1ccccc1)Cc1ccccc1,3.09%

row,Compound,% Inhibition @ 10 uM
1,CCOC(=O)N1CCN(CCN2CCn3c2nc2ccccc23)CC1,-5.14%
2,Cc1ccc(NC(=O)COc2ccc(S(=O)(=O)NCc3ccccc3)cc2)cc1Cl,-1.55%
3,Cc1ccc(Cl)cc1NC(=O)C1CC(=O)N(c2ccc(F)cc2)C1 (centres unmarked),0.661%
4,c1cnc(N2CCN(Cc3nnc(-c4ccc5c(c4)OCO5)o3)CC2)nc1,2.5%
5,Cc1ccc(N2CC(C(=O)Nc3ccc(Cl)cc3)CC2=O)cc1C (centres unmarked),-10.4%
6,O=C(NCCc1ccccc1)C(Cc1ccccc1)NS(=O)(=O)c1cccc2cccnc12 (centres unmarked),-7.99%
7,CCOc1ccc(CN2CCN(Cc3c[nH]c4ccccc34)CC2)cc1,-1.26%
8,Cc1oc(-c2ccccc2F)nc1CS(=O)(=O)CC(=O)NC1CCCC1,1.55%
9,CCOC(=O)c1cc2c(=O)n3ccccc3nc2n(C(C)C)/c1=N\C(=O)c1cc(OC)cc(OC)c1,4.37%
10,O=C(Nc1cccnc1Cl)c1ccc(C(F)(F)F)cc1,-3.65%
11,Cc1cc(C)c2c(-n3cccc3)c(C(=O)NCCCN(C)Cc3ccccc3)sc2n1,-4.91%
12,COC(=O)CCS(=O)(=O)c1ccc(Br)cc1,-5.41%
13,CCCCn1cnc2scc(-c3ccc(OCCC)cc3)c2c1=O,2.45%
14,CC(C)(C)C(=O)NC(=S)Nc1cccc(O)c1,-6.08%
15,Cc1cccc(NC(=O)C(NC(=O)C2CCCCC2)C(C)C)n1 (centres unmarked),-0.972%
16,O=C(c1ccccc1)c1ccc(NC(=O)C2CCCCC2)cc1,0.907%
17,Cc1ccc(S(=O)(=O)N(CC(=O)NCc2ccncc2)c2cccc(Br)c2)cc1,0.145%
18,c1ccc2[nH]c(CSCCC3CCCCC3)nc2c1,11.9%
19,c1ccc(CN2CCS/C2=N/c2ccccc2)cc1,0.0265%
20,CCn1c(C(=O)O)c(CNCCc2ccc(SC)cc2)c2ccc(C)cc21,-3.86%
21,COc1cccc2c1OC1(C)C(C)C2NC(=S)N1CC1CCCO1 (centres unmarked),-1.29%
22,O=C(NCCn1ccc2ccccc21)C1CCCCC1,-0.396%
23,C=CCn1c(NCc2sccc2C)nc2ccccc21,1.64%
24,CC(=O)C(=CNc1cc(-c2ccc(C)cc2)nn1-c1ccccc1)C(C)=O,-2.8%
25,CCc1cccc(C)c1NC(=O)CN(C1CCCCC1)S(C)(=O)=O,-0.992%

row,Compound,% Inhibition @ 10 uM
1,COc1ccccc1C(=O)N/C(=C\c1ccc2c(c1)OCO2)C(=O)NCCCCCC(=O)O,7.1%
2,CCOc1cccc(-c2nc(O)c3c(n2)Oc2c(C)cccc2C3)c1O,5.48%
3,CCCCCC(=O)NCCC(=O)O,-0.415%
4,Cc1ccc(NC(=O)C(C)Oc2ccccc2)nc1 (centres unmarked),-3.16%
5,CC(=O)Nc1ccc(-c2ccc(OCc3ccccc3)cc2)cc1,-1.41%
6,O=C(Nc1ccc(S(=O)(=O)N2CCC(C(=O)O)CC2)cc1)c1ccccc1Cl,1.49%
7,Fc1ccc(Nc2ncnc3ccccc23)cc1Cl,-6.92%
8,O=C(O)CCCN1C(=O)c2ccccc2C1=O,4.73%
9,CC1=[N+]([O-])C2(C)CCCCC2(O)[N+]([O-])=C1C (centres unmarked),-0.0626%
10,Cc1ccc(S(=O)(=O)N(C)CC(=O)Nc2ccccc2C)cc1,-1.99%
11,CCCN1C2=C(C(=O)CC(C)(C)C2)C(c2ccc(OC)c(OC)c2)C2=C1CC(C)(C)CC2=O,-5.28%
12,CC(=O)N1CCN(c2ccc(NCc3ccccc3)cc2)CC1,-7.15%
13,O=C(c1ccc(Cl)cc1)N1CCN(CCN2C(=O)c3cccc4cccc(c34)C2=O)CC1,-5.31%
14,Cc1ccc(C)c(S(=O)(=O)NC(C)C(=O)NCc2ccccn2)c1 (centres unmarked),10.3%
15,Cc1ccc(S(=O)(=O)Cc2ccc(C(=O)N3CCN(c4ccccn4)CC3)o2)cc1,-1.28%
16,CN1C(=O)c2ccccc2C(C(=O)Nc2nccs2)C1c1cccs1 (centres unmarked),-7.02%
17,Cc1c(Cl)cccc1NC(=O)C(O)c1ccccc1 (centres unmarked),0.605%
18,Cc1oc(-c2ccccc2Cl)nc1CS(=O)CC(=O)NCCC(C)C (centres unmarked),0.689%
19,c1ccc(CCSc2nnc3sc4ccccc4n23)cc1,-1.18%
20,COCCCNS(=O)(=O)c1ccc(-c2ccc(O)nn2)o1,-8.17%
21,COc1ccccc1CCn1c(-c2ccccc2)cn2c3c(=O)n(C)c(=O)n(C)c3nc12,-8.05%
22,O=C(NCc1ccc(Cl)cc1)c1ccc2nc3c(cc2c1)CCS3,-3.78%
23,CCCC12CN3CC(C)(CN(C1)C3c1c(C)[nH]c3ccccc13)C2=O (centres unmarked),0.565%
